Measurements: a collection of fitness landscapes (doi:10.1126/science.1257360)
The list shows a part of the results.

B1: PhoQ; a variant is named by its letters at X, in order, P23837 (parent)
chain: MKKLLRLFFPLSLRVRFLLATAAVVLVLSLAYGMVALIGYSVSFDKTTFRLLRGESNLFYTLAKWENNKLHVELPENIDKQSPTMTLIYDENGQLLWAQRDVPWLMKMIQPDWLKSNGFHEIEADVNDTSLLLSGDHSIQQQLQEVREDDDDAEMTHSVAVNVYPATSRMPKLTIVVVDTIPVELKSSYMVWSWFIYVLSANLLLVIPLLWVAAWWSLRPIEALAKEVRELEEHNRELLNPATTRELTSLVRNLNRLLKSERERYDKYRTTLTDLTHSLKTPLXXLQXXLRSLRSEKMSVSDAEPVMLEQISRISQQIGYYLHRASMRGGTLLSRELHPVAPLLDNLTSALNKVYQRKGVNISLDISPEISFVGEQNDFVEVMGNVLDNACKYCLEFVEISARQTDEHLYIVVEDDGPGIPLSKREVIFDRGQRVDTLRPGQGVGLAVAREITEQYEGKIVAGESMLGGARMEVIFGRQHSAPKDE

Variants of: B1
Assay: enrichment ratio after two sorts for PhoP signalling (ratio (wild type AVST 3.29)); higher = more functional
Details: with PhoP (E. coli)

Row | Variant | enrichment ratio
1 | APWW | ≤ 0.25
2 | FEYI | ≤ 0.25
3 | DMEF | ≤ 0.25
4 | YPFR | ≤ 0.25
5 | LVNV | ≤ 0.25
6 | QNDS | ≤ 0.25
7 | QMKF | ≤ 0.25
8 | LNYQ | ≤ 0.25
9 | QDKE | ≤ 0.25
10 | FISS | ≤ 0.25
11 | ANLR | 8.82
12 | NSCW | ≤ 0.25
13 | CPDF | ≤ 0.25
14 | EGNC | ≤ 0.25
15 | ASQV | 1.45
16 | PAQQ | ≤ 0.25
17 | SNCM | 11.2
18 | MSGV | 13.8
19 | VSEF | ≤ 0.25
20 | RVWC | ≤ 0.25
21 | AQFT | ≤ 0.25
22 | SWMD | ≤ 0.25
23 | YCND | ≤ 0.25
24 | NTNH | ≤ 0.25
25 | LSEA | ≤ 0.25
26 | VNQC | ≤ 0.25

Row | Variant | enrichment ratio
27 | FDQK | ≤ 0.25
28 | NMGL | ≤ 0.25
29 | PWIH | ≤ 0.25
30 | TYDH | ≤ 0.25
31 | ICVN | ≤ 0.25
32 | VQTC | ≤ 0.25
33 | HFHT | ≤ 0.25
34 | WAER | ≤ 0.25
35 | LDVY | ≤ 0.25
36 | HFMW | ≤ 0.25
37 | GQTW | ≤ 0.25
38 | TLYT | ≤ 0.25
39 | LFNC | ≤ 0.25
40 | EIYD | ≤ 0.25
41 | HGES | ≤ 0.25
42 | SVGV | ≤ 0.25
43 | FFCE | ≤ 0.25
44 | STGF | 11.4
45 | NNKF | ≤ 0.25
46 | NPTL | ≤ 0.25
47 | FSYP | ≤ 0.25
48 | EMRM | ≤ 0.25
49 | FENR | ≤ 0.25
50 | FPPA | ≤ 0.25
51 | TQTY | 17.5
52 | WSSY | ≤ 0.25

Row | Variant | enrichment ratio
53 | NNIK | ≤ 0.25
54 | GGRL | ≤ 0.25
55 | MLAS | 1.4
56 | KCDL | ≤ 0.25
57 | YDSG | ≤ 0.25
58 | WRVM | ≤ 0.25
59 | AHLY | 3.97
60 | REVF | ≤ 0.25
61 | RKNF | ≤ 0.25
62 | REYA | ≤ 0.25
63 | HWNK | ≤ 0.25
64 | PDCN | ≤ 0.25
65 | TGIA | ≤ 0.25
66 | GWGN | ≤ 0.25
67 | MTKK | ≤ 0.25
68 | MAWD | ≤ 0.25
69 | FGCA | ≤ 0.25
70 | AGYS | ≤ 0.25
71 | ARPM | ≤ 0.25
72 | VRAC | ≤ 0.25
73 | TGIQ | ≤ 0.25
74 | VISM | ≤ 0.25
75 | EYNC | ≤ 0.25
76 | MDKG | ≤ 0.25
77 | QHQS | ≤ 0.25
78 | SANA | ≤ 0.25

Row | Variant | enrichment ratio
79 | RWEP | ≤ 0.25
80 | LYYK | ≤ 0.25
81 | TKDF | ≤ 0.25
82 | QQGD | ≤ 0.25
83 | YYEY | ≤ 0.25
84 | MKPY | ≤ 0.25
85 | KSLT | ≤ 0.25
86 | FRAM | ≤ 0.25
87 | WAIW | ≤ 0.25
88 | HWSQ | ≤ 0.25
89 | DWES | ≤ 0.25
90 | GWNW | ≤ 0.25
91 | IIQS | ≤ 0.25
92 | IYSE | ≤ 0.25
93 | VNNN | ≤ 0.25
94 | DNII | ≤ 0.25
95 | DRAL | ≤ 0.25
96 | IVHS | ≤ 0.25
97 | IWQM | ≤ 0.25
98 | AVPH | ≤ 0.25
99 | HWTK | ≤ 0.25
100 | NRCS | ≤ 0.25
101 | KMYQ | ≤ 0.25
102 | MNCD | ≤ 0.25
103 | TISH | 10.4
104 | NHQA | ≤ 0.25

Row | Variant | enrichment ratio
105 | MESP | ≤ 0.25
106 | TLLG | 0.286
107 | DAAG | ≤ 0.25
108 | LLAD | ≤ 0.25
109 | DWHW | ≤ 0.25
110 | QDCK | ≤ 0.25
111 | QQAM | ≤ 0.25
112 | YSCN | ≤ 0.25
113 | CCHN | ≤ 0.25
114 | MFCE | ≤ 0.25
115 | RNSM | ≤ 0.25
116 | WDAY | ≤ 0.25
117 | TGDM | ≤ 0.25
118 | ATFN | ≤ 0.25
119 | GCVG | ≤ 0.25
120 | FRQG | ≤ 0.25
121 | LVYT | ≤ 0.25
122 | TRTC | ≤ 0.25
123 | MCQS | ≤ 0.25
124 | MCVC | ≤ 0.25
125 | VTPP | ≤ 0.25
126 | TGWW | ≤ 0.25
127 | AFQY | ≤ 0.25
128 | MVNI | ≤ 0.25
129 | NESF | ≤ 0.25
130 | DGIA | ≤ 0.25

Row | Variant | enrichment ratio
131 | WGSP | ≤ 0.25
132 | YFVP | ≤ 0.25
133 | FAVK | ≤ 0.25
134 | YICM | 0.373
135 | MMMI | ≤ 0.25
136 | ASSI | 15.8
137 | GPPE | ≤ 0.25
138 | HGTT | ≤ 0.25
139 | NNLI | ≤ 0.25
140 | RNKC | ≤ 0.25
141 | AYGP | ≤ 0.25
142 | PRLI | ≤ 0.25
143 | DWFT | ≤ 0.25
144 | VHKM | ≤ 0.25
145 | HHNW | ≤ 0.25
146 | RTHC | ≤ 0.25
147 | RYHT | ≤ 0.25
148 | QSSM | 15.9
149 | SWCM | ≤ 0.25
150 | QELW | ≤ 0.25
151 | ECPP | ≤ 0.25
152 | KHLL | ≤ 0.25
153 | GHNP | ≤ 0.25
